Measured values as given in PubChem BioAssay AID602156 (GNF / Scripps Winzeler lab, 2011).
This is one part of the list. These are further read-outs of the screen, such as a control signal, another cell line or another target. No call is given for them.

Experiment: Plasmodium liver-stage growth inhibition, dose response, imaging, Malaria Box, P. yoelii, HepG2-A16-CD81EGFP (AID 602156);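 further: infected cells exposed to compound for 48 hours before fixation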
Settings: P. yoelii liver stage in HepG2-A16-CD81EGFP, measured here: liver parasite size at 10 uM

Structure (SMILES)	parasite size
CCOC(=O)c1ccc2[nH]c(-c3ccccc3)cc(=O)c2c1	20.7 um
CCOC(=O)C1=C(C)NC2=C(C(=O)C(C(=O)OCC)C(c3ccccc3OC)C2)C1c1cc(OC)c(OC)c(OC)c1 (centres undefined)	104 um
CC(=O)N1c2ccc(C)cc2C(C)(c2ccccc2)CC1(C)C (centres undefined)	105 um
CC1(C)N=C(N)N=C(N)N1c1ccc(F)cc1	38.9 um
CCCCCc1c(C)c(C#N)c2nc3ccccc3n2c1NCCN(CC)CC	74 um
C=CCN1C(=Cc2cc[n+](C)cc2)Sc2ccccc21	26.7 um
Nc1ccc(N2CCCCCC2)cc1	77.7 um
c1ccc2cc3c(N4CCN(CCN5CCN(c6ccnc7cc8ccccc8cc67)CC5)CC4)ccnc3cc2c1	136 um
CCOC(=O)c1c(NC(C)=O)sc2c1CCN(C(C)C)C2	93.2 um
CCCCSc1oc(C)nc1[P+](c1ccccc1)(c1ccccc1)c1ccccc1	22.1 um
Cc1cc(Nc2cccc(F)c2)nc(NCc2ccccc2)n1	73.1 um
O=C(c1cccc(Cl)c1)N1CCN(c2ccc([N+](=O)[O-])c(NC3CC3)c2)CC1	103 um
Clc1ccccc1-c1nc([P+](c2ccccc2)(c2ccccc2)c2ccccc2)c(N2CCOCC2)o1	20.6 um
CCOC(=O)c1c(CSc2ccccc2)oc2cc(CN(C)C)c(O)c(Cl)c12	188 um
O=[N+]([O-])c1cccc(C(Nc2nccs2)c2ccc3cccnc3c2O)c1 (centres undefined)	43.4 um
COc1ccc(Nc2cc(C)nc(NCc3ccccc3)n2)cc1	57.8 um
N#Cc1ccc(NC(=O)NC2CC3CCCC(C2)N3CCc2ccccc2)cc1 (centres undefined)	62 um
O=C1c2ccccc2-n2c1nc1ccccc1c2=O	89.5 um
CC[n+]1c(C=C2C=Cc3cc(C)ccc3N2C)sc(C)c1C	14.9 um
Cc1oc2c(c1C(=O)NCC1CCCO1)C(=O)c1ccccc1C2=O (centres undefined)	21.4 um
c1ccc(Nc2ccnc(Nc3ccccc3)n2)cc1	92.4 um
CC1(C)N=C(N)N=C(N)N1c1ccc(I)cc1	33.8 um
COc1ccc2[nH]c3ccccc3c(=O)c2c1	30.3 um

Structure (SMILES)	parasite size
CC[n+]1c(/C=C/N(C)c2ccccc2)n(-c2ccccc2)c2ccc(-c3nc4ccccc4s3)cc21	20.1 um
O=C1C2=C(Nc3ccccc3SC2c2ccc(Br)cc2)c2ccccc21 (centres undefined)	34 um
Cc1cc(C)nc(N=C(N)Nc2cccc(O)c2)n1	88.2 um
Fc1ccc2nc(Nc3nc(-c4ccccn4)cs3)sc2c1	22.9 um
CCCC[n+]1ccccc1C=C1Sc2ccccc2N1CC	18.5 um
c1ccc(-c2nn(-c3ccccc3)[n+](-c3ccccc3)n2)cc1	26.5 um
CCC[n+]1cccc2ccc3cccnc3c21	43.4 um
COc1ccc(C2CC(=O)C3=C(C2)NC(C)=C(C(=O)OC(C)C)C3c2cccc(C)c2)cc1OC (centres undefined)	90.9 um
CCOc1ccc(N2C(N)=NC(N)=NC2(C)C)cc1	35.6 um
CCCCCCOc1ccc(C(C)=NNC2=NCCN2)cc1[N+](=O)[O-]	61 um
FC(F)(F)c1ccccc1NC(=S)N1CCCN(c2nc3ccc(Cl)cc3s2)CC1	91.8 um
Cc1cccc(-c2cc3nc(C)c(C)c(=O)n3[nH]2)c1	67.4 um
c1ccc2c(NCCc3cnc[nH]3)c3ccccc3nc2c1	110 um
O=C1C2=C(Nc3ccccc3SC2c2ccc(OCc3ccccc3)cc2)c2ccccc21 (centres undefined)	23.2 um
Cc1cc(OC(C)C(=O)N2CCc3ccccc32)ccc1Cl (centres undefined)	59.6 um
CCOC(=O)c1cnc2ccc(OC)cc2c1Cl	31 um
O=C(Nc1ccc(Oc2cccc(Oc3ccc(NC(=O)c4ccc(Br)o4)cc3)c2)cc1)c1ccc(Br)o1	18.8 um
CCOC(=O)c1ccc(NC(=O)CSc2nc(NCc3ccccc3)c3ccccc3n2)cc1	69.2 um
COc1ccc2nc(-c3ccccc3)cc(NCCN(C)C)c2c1	69.1 um
CCN(CC)CCCN(Cc1cc2cc(OC)c(OC)cc2[nH]c1=O)C(=S)Nc1cccc(Cl)c1	60.5 um
CC(Oc1ccc(Cl)cc1Cl)c1nc(-c2ccc(NC(=O)c3cccs3)cc2)no1 (centres undefined)	21.9 um
CCC(C)(C)c1ccc(OCCCC[n+]2cccc(C)c2C)c(C(C)(C)CC)c1	12.5 um
Cc1cn2c3ccccc3n(CCN3CCCC3)c2n1	126 um

Structure (SMILES)	parasite size
COc1ccc2nc(C)cc(Nc3ccc(Oc4ccc(Cl)c5ccccc45)c(Cl)c3)c2c1	22.6 um
COc1ccc2nc(C)cc(Nc3ccc(Oc4ccc5ccccc5c4Cl)c(Cl)c3)c2c1	31 um
CCN1/C(=C/c2ccc3ccccc3[n+]2CC)Sc2sc3ccccc3c21	32.8 um
Oc1cccc2ccc(Nc3ccccn3)nc12	30.2 um
Cc1ccc(Nc2cc(C)nc(NCc3ccccc3)n2)c(C)c1	89.1 um
CC(C)c1nc(N2CCN(C(=O)Nc3ccccc3)CC2)c(C#N)c2c1COC(C)(C)C2	82.2 um
CCOc1ccc(CN(C(=O)COc2ccc(Cl)cc2)C(C)CCCN(CC)CC)cc1 (centres undefined)	55.3 um
O=C(Nc1ccc(-c2nc3ccc(NC(=O)c4ccc(Br)o4)cc3[nH]2)cc1)c1ccc(Br)o1	101 um
O=C1c2ccccc2C2=Nc3ccccc3SC(c3cccc(F)c3)C12 (centres undefined)	30.1 um
CCc1nc(N)nc(N)c1-c1ccc(Cl)cc1	37.6 um
Cc1ncc(CCCCN(C)C)c2c1[nH]c1ccccc12	133 um
Cc1[nH]c2c(C)cccc2c(=O)c1CC=C(Cl)Cl	31.2 um
COc1ccc(C2CC(=O)C3=C(C2)NC(C)=C(C(=O)OC2CCCC2)C3c2cccc(C)c2)cc1OC (centres undefined)	66.8 um
O=C1C2=C(Nc3ccccc3SC2c2ccccc2)c2ccccc21 (centres undefined)	28.4 um
Nc1ccc(-c2nc3cc(Oc4ccc(Oc5ccc6[nH]c(-c7ccc(N)cc7)nc6c5)cc4)ccc3[nH]2)cc1	116 um
O=c1c2c([nH]c3ccccc13)CCCC2	39.5 um
O=C(NC(=C(Cl)Cl)[P+](c1ccccc1)(c1ccccc1)c1ccccc1)c1ccc(F)cc1	26.9 um
CCN(CC)CCCNc1nc2cc(OC)c(OC)cc2c2nc(-c3ccccc3)nn12	52.6 um
CCN1C(=Cc2cc[n+](C)cc2)C=Cc2cc(C)ccc21	25.6 um
COc1ccc(C2Sc3ccccc3NC3=C2C(=O)c2ccccc23)cc1 (centres undefined)	39.1 um
OCCNc1nc(Nc2ccc(F)cc2)nc2ccccc12	91.1 um
CC1(C)N=C(N)N=C(N)N1c1ccc(Cl)cc1	33.1 um
CC(C)NC(=O)c1cc(NC(=O)c2cccs2)ccc1N1CCc2ccccc2C1	26.9 um
